We go through 115 sequences from the BET-seq Pho4 binding data (Le et al. 2018).

This is one part of the list. The energies were worked out here from pooled read counts, against the library average; single values are noisy.

For the assay, the target named is T1, Pho4 (S. cerevisiae) (UniProt P07270).
T1 sequence: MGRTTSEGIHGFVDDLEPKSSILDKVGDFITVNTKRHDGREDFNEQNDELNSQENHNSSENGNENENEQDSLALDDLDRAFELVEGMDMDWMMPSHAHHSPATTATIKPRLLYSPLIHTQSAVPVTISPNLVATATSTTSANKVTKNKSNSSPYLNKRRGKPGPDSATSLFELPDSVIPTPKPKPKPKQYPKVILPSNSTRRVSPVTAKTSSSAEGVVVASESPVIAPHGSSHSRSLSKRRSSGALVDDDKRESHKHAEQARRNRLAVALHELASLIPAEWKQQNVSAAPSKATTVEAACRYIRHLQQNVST
The experiment in a line: relative binding free energy (BET-seq); higher = weaker binding. The settings on record: reference: library average.
In the case of GAGGTCACGTGGACGG, the “relative binding free energy” value stood at 0.25 kcal/mol.
As for TGCGTCACGTGTATAT, the “relative binding free energy” value is -0.01 kcal/mol.
Take TGTCTCACGTGGGTTA: the “relative binding free energy” value was found to be 0.04 kcal/mol.
Take GTGGTCACGTGGAGAA: the “relative binding free energy” value amounted to 0.02 kcal/mol.
For TTTAGCACGTGTTTGG the value was -0.01 kcal/mol; for ATTCGCACGTGGGTTA, -0.18 kcal/mol; for AGTTTCACGTGAGACT, 0.41 kcal/mol.
For the sequence TGTTTCACGTGTGGCA, the “relative binding free energy” value came to 0.46 kcal/mol.
For the sequence CAGGTCACGTGATTTG, the “relative binding free energy” value was found to be 0.35 kcal/mol.
For ATTGACACGTGATTAT the value was 0.09 kcal/mol.
As for AGTCACACGTGGATGT, the figure is 0.19 kcal/mol; as for GTATACACGTGTGTGA, 0.03 kcal/mol.
As to ATAGGCACGTGAGGCT, the “relative binding free energy” value worked out at 0.11 kcal/mol.
As for TTATTCACGTGGTAAT, the figure is 0.25 kcal/mol; as for TGTGGCACGTGGCTGG, -0.08 kcal/mol; as for GAGCTCACGTGTTGTG, 0.3 kcal/mol.
On to GTCATCACGTGGGGCG, for which the “relative binding free energy” value turned out to be 0.08 kcal/mol.
Consider AAGGGCACGTGGCAGT, for which the “relative binding free energy” value is -0.21 kcal/mol.
Take AAGGTCACGTGGACTG: the “relative binding free energy” value came to 0.12 kcal/mol.
For GTAGACACGTGGTACG, the “relative binding free energy” value is -0.12 kcal/mol.
With TTGGTCACGTGAAGAT, the “relative binding free energy” value worked out at 0.28 kcal/mol.
In the case of CTTGTCACGTGTAAGT, the “relative binding free energy” value stood at 0.06 kcal/mol.
As to CCGTTCACGTGTTGGT, the “relative binding free energy” value amounted to 0.13 kcal/mol.
ATTCGCACGTGGTATG: the “relative binding free energy” value was -0.1 kcal/mol.
As to TAAGACACGTGGAAGT, the “relative binding free energy” value worked out at 0.1 kcal/mol.
Turning to AAGGGCACGTGGTTCA, the “relative binding free energy” value is -0.16 kcal/mol.
For CGAGGCACGTGATGAG the value was -0.02 kcal/mol; for AGGATCACGTGGCATG, 0.07 kcal/mol.
For GTGCGCACGTGCTGTT the value was -0.03 kcal/mol; for GTTTGCACGTGTCCGG, -0.06 kcal/mol.
For GGTGTCACGTGAGCAG the value was 0.29 kcal/mol.
For the sequence AGAATCACGTGATATT, the “relative binding free energy” value was determined as 0.22 kcal/mol.
With AATAGCACGTGGATGA, the “relative binding free energy” value was -0.01 kcal/mol.
As to ATGGGCACGTGGTGGG, the “relative binding free energy” value is -0.21 kcal/mol.
For GAGTGCACGTGCTGGG the value was -0.05 kcal/mol; for GGGGTCACGTGTCAGT, 0.12 kcal/mol.
For the sequence GCGTGCACGTGAAAGT, the “relative binding free energy” value amounted to 0.32 kcal/mol.
As for TTCTTCACGTGAATGG, the figure is 0.38 kcal/mol.
In the case of GGCGGCACGTGGAATG, the “relative binding free energy” value was 0.09 kcal/mol.
Take AATGGCACGTGGATCG: the “relative binding free energy” value is -0.09 kcal/mol.
AAGGTCACGTGTGAGG: the “relative binding free energy” value came out at 0.13 kcal/mol.
As to CAAGACACGTGGTGGG, the “relative binding free energy” value is -0.03 kcal/mol.
As for ATAATCACGTGGGGCT, the figure is -0.07 kcal/mol.
Consider GGATTCACGTGTTGTG, for which the “relative binding free energy” value was 0.35 kcal/mol.
With ATCGGCACGTGTTTGC, the “relative binding free energy” value was -0.03 kcal/mol.
For the sequence GGTTACACGTGGTTGC, the “relative binding free energy” value worked out at 0.12 kcal/mol.
TTGCGCACGTGGTGAG: the “relative binding free energy” value is -0.2 kcal/mol.
GTGGTCACGTGAGGGT: the “relative binding free energy” value was 0.39 kcal/mol.
For TGGATCACGTGGAGCG, the “relative binding free energy” value was determined as 0.12 kcal/mol.
For ATAGTCACGTGGTTTG the value was 0.05 kcal/mol; for GTAGACACGTGCGTTT, 0.01 kcal/mol.
As for CGGTTCACGTGGTAGC, the figure is 0.27 kcal/mol; as for CAAGACACGTGGGGTG, -0.12 kcal/mol.
With GTAGTCACGTGGACGG, the “relative binding free energy” value was 0.08 kcal/mol.
As for CTAGTCACGTGGGGTG, the figure is -0.12 kcal/mol; as for GGAGACACGTGTGTTA, -0.01 kcal/mol; as for AGATACACGTGGCGGT, -0.06 kcal/mol.
Regarding TTTTGCACGTGTATAT, the “relative binding free energy” value was -0.02 kcal/mol.
For GATTTCACGTGTAGTT the value was 0.26 kcal/mol.
In the case of GATGTCACGTGTAAGT, the “relative binding free energy” value was 0.28 kcal/mol.
As for GTGAGCACGTGTGATG, the “relative binding free energy” value stood at 0.03 kcal/mol.
As for TTATGCACGTGAAGAT, the figure is 0.17 kcal/mol; as for GGGTGCACGTGAAGAG, 0.44 kcal/mol; as for TGGACCACGTGATGGT, 0 kcal/mol.
For CGGGACACGTGGTTAT the value was -0.08 kcal/mol.
For the sequence GTTCGCACGTGCAGGT, the “relative binding free energy” value came to 0.04 kcal/mol.
For TGTGGCACGTGGTGAT, the “relative binding free energy” value was -0.11 kcal/mol.
As for CAGTTCACGTGTGATT, the figure is 0.23 kcal/mol; as for GGTGGCACGTGTAGTG, 0 kcal/mol; as for ATGTACACGTGGACGG, 0.13 kcal/mol.
As for TCTGTCACGTGGTCGG, the figure is -0.01 kcal/mol; as for CTGGCCACGTGTTTGG, -0.18 kcal/mol; as for TGAGTCACGTGGGACA, 0.1 kcal/mol.
For the sequence TTTGGCACGTGAAGTA, the “relative binding free energy” value stood at 0.06 kcal/mol.
On to CTTTACACGTGGGTGG, for which the “relative binding free energy” value came out at 0 kcal/mol.
As for AAAGGCACGTGGGAGC, the figure is -0.14 kcal/mol.
In the case of GATTACACGTGTGTCT, the “relative binding free energy” value is 0.22 kcal/mol.
For TTTGCCACGTGGTTGC the value was -0.11 kcal/mol; for TATATCACGTGGGTAA, -0.02 kcal/mol.
As for TATGGCACGTGTCAGG, the figure is -0.06 kcal/mol; as for TTCAGCACGTGGGTCG, -0.02 kcal/mol; as for ATCTGCACGTGGTGGG, -0.02 kcal/mol.
Turning to TGCATCACGTGGGGCG, the “relative binding free energy” value amounted to 0 kcal/mol.
Take CAATTCACGTGTAGTG: the “relative binding free energy” value came out at 0.25 kcal/mol.
Turning to GGTTGCACGTGTCACG, the “relative binding free energy” value was 0.04 kcal/mol.
As for ACTGTCACGTGGGCTT, the figure is -0.01 kcal/mol; as for GTGTTCACGTGGAAGA, 0.23 kcal/mol; as for AGGTACACGTGATTGT, 0.09 kcal/mol.
Regarding AATGACACGTGATGTG, the “relative binding free energy” value amounted to 0.07 kcal/mol.
As for GTGTGCACGTGTTGAC, the figure is 0.16 kcal/mol; as for CTTATCACGTGGAGTT, 0.24 kcal/mol.
Take AATAGCACGTGTAAGG: the “relative binding free energy” value is -0.01 kcal/mol.
For AGGTCCACGTGAGGTG the value was 0.19 kcal/mol; for AAGGTCACGTGGGGTT, -0.15 kcal/mol.
Take TCCGGCACGTGGGGTA: the “relative binding free energy” value was -0.12 kcal/mol.
For ATTAGCACGTGGATAG the value was -0.02 kcal/mol; for TGTGACACGTGTAGTG, 0.05 kcal/mol.
For ATGATCACGTGATGGT the value was 0.22 kcal/mol.
As for GAGACCACGTGGGTTG, the figure is -0.05 kcal/mol.
Consider TCTTGCACGTGGAGAG, for which the “relative binding free energy” value is 0.03 kcal/mol.
For TAATGCACGTGATTCG the value was 0.09 kcal/mol; for AGTCGCACGTGTGATG, 0.05 kcal/mol.
For TGGGGCACGTGAAATT, the “relative binding free energy” value was 0.28 kcal/mol.
For GTGATCACGTGGTGTG the value was 0.09 kcal/mol; for TGGTTCACGTGGATGA, 0.1 kcal/mol; for GATTGCACGTGTGGGC, 0.13 kcal/mol.
Consider GGCTTCACGTGCGTTT, for which the “relative binding free energy” value was 0.34 kcal/mol.
For AGAATCACGTGCATGG the value was 0.18 kcal/mol; for GCGGGCACGTGTGATT, 0.13 kcal/mol.
As for AATGGCACGTGGTATG, the figure is -0.14 kcal/mol; as for TATTGCACGTGGCCGG, -0.23 kcal/mol.
Regarding GTTGTCACGTGAAAAT, the “relative binding free energy” value turned out to be 0.33 kcal/mol.
For GTTGACACGTGGGTTA the value was -0.15 kcal/mol; for GTCTTCACGTGATGTT, 0.3 kcal/mol.
For GGGTACACGTGTCGGA, the “relative binding free energy” value is 0.2 kcal/mol.
